Measured values taken from PMC4336329 (PLoS ONE, 2015).
The whole screen tested about 310,000 compounds, of which about 2,200 (0.71%) showed an effect of 50% or more. Effects have a minus sign here. The list shows a part of the results.

The compounds below were run against human ether-à-go-go-related gene (hERG) potassium channel (human, UniProt Q12809) (assay: primary screen, population patch clamp on CHO cells stably expressing hERG).
Chain of human ether-à-go-go-related gene (hERG) potassium channel (Q12809 whole entry, looked up): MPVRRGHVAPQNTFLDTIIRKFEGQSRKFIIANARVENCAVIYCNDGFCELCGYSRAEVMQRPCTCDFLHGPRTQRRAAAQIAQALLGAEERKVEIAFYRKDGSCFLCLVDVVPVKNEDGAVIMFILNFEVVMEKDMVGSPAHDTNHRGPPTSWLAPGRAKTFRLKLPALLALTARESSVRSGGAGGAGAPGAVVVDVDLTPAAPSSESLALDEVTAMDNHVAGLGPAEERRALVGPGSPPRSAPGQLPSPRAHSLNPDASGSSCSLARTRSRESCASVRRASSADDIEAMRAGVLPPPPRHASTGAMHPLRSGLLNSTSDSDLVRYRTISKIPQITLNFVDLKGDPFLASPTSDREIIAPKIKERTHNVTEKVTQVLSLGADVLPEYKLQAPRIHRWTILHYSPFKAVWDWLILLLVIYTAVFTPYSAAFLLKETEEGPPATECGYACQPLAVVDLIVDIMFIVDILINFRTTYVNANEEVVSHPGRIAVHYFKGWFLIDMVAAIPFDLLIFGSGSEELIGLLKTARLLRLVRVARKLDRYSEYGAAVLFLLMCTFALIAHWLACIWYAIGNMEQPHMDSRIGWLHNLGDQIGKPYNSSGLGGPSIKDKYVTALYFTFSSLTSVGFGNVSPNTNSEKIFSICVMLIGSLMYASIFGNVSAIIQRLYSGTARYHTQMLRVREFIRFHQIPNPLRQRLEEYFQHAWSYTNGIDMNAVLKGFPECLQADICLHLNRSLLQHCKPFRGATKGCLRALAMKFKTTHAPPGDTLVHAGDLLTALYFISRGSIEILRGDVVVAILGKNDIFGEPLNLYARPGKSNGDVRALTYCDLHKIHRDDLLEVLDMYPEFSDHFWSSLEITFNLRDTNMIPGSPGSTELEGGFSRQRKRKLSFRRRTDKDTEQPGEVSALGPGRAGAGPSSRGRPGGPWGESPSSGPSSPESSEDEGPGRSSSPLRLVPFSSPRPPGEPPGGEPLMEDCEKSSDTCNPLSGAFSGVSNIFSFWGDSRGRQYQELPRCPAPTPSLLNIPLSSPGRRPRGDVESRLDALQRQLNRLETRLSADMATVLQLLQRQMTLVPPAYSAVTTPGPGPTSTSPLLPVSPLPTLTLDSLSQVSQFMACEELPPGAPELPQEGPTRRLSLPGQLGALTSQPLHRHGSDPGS

SMILES	hERG current change (%, negative = inhibition) at 1uM [%]
CC1CCCCC1NC(=O)/C=C/c1nc2ccccc2s1 (centres unmarked)	1.69
CC(=O)c1ccc(NC(=O)CCn2c(=S)oc3ccccc32)cc1	11.8
O=c1c2ccccc2nc2n1-c1ccccc1CCC2	11.8
CCCCNC(=O)Cn1cnc2sc(C)c(S(=O)(=O)N3CCN(c4ncccn4)CC3)c2c1=O	11.8
COc1ccc(-c2nc3c(c(=O)[nH]c(=O)n3Cc3ccccc3)n2Cc2ccccc2)cc1	-5.94
CCc1ccc(-c2cc(C)no2)cc1S(=O)(=O)Nc1cc(C)ccn1	14.4
CCC(C)NCCOCCOc1ccc(F)cc1.O=C(O)C(=O)O (centres unmarked)	8.31
CCOc1ccc(S(=O)(=O)n2c([N+](=O)[O-])cnc2C)c(C)c1C.O=C(O)C(=O)O	11.8
CC(=O)N1c2ccc(S(=O)(=O)N3CCC(C(=O)Nc4cccc(Cl)c4)CC3)cc2CC1C (centres unmarked)	18.4
O=C(CO/N=C/c1ccccc1OC(F)F)NC1CCCCC1	1.39
CCCOC(=O)COc1cc(C)cc2oc(=O)c3c(c12)CCC3	13.8
O=C(CCNS(=O)(=O)c1ccccc1C(F)(F)F)N1CCN(S(=O)(=O)c2cccc(Cl)c2)CC1	16
Cc1ccc(-c2noc(CCC(=O)NCCCN3CCN(c4cccc(Cl)c4)CC3)n2)cc1	11.8
O=C(NCc1ccccc1)C1=C[C@H](c2ccc3c(c2)OCO3)C[C@H](OCCCCO)O1	2.86
Cc1ccc(S(=O)(=O)NC(CC(=O)n2nc(C)cc2C)c2ccccc2)cc1 (centres unmarked)	11.2
CS(=O)(=O)N(CC(=O)Nc1ccccc1C(=O)N1CCCC1)c1ccc2c(c1)OCO2	4.42
COC(=O)[C@]1(C)CCC[C@@]2(C)C3CC[C@]4(OC(C)=O)C[C@@]3(CCC21)CC4=NO (some centres unmarked)	0.0891
Cc1ccc2c(c1)N(CC(=O)NCc1cccs1)C(=O)C(C)O2 (centres unmarked)	16.4
NC(=S)NNc1cccc2cccnc12	24.6
O=C(O)CCCC(=O)Nc1cccc(C(F)(F)F)c1	0.386
Cc1cc2oc(C(=O)Nc3nonc3C)c(C)c2cc1Cl	19.7
Cc1nc2c(cc1NC(=O)c1ccccc1)nc(C)n2Cc1ccccc1	8.85
COc1cccc(NC(=S)/C(=C(\[O-])c2cc(C)n(-c3ccccc3F)c2C)[n+]2ccc(N(C)C)cc2)c1	12.4
